Laboratory results reported in PubChem BioAssay (NCI).
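Interpolation was linear, between the two tested concentrations surrounding the appropriate level; five concentrations were tested over 48 hours in 96-well plates. At the GI50, growth is halved. TGI is the concentration that stops growth completely.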

The compounds below were run on NCI-H322M lung (assay: NCI anticancer screen, dose series, 48 h).

With S=C1CSc2c(cnc3ccccc23)N1 as the compound, how does the TGI read?
The TGI was > 100 µM.

With Cc1cccc(N2C(=O)C(=O)C(c3nc4ccccc4s3)C(=O)C2=O)c1C as the compound, how does the TGI read?
The TGI was > 100 µM.

With CC(=O)C(C(=O)C(C)(C)C)C(=O)C(C)(C)C as the compound, how does the TGI read?
The TGI was > 100 µM.

Which TGI does the source give for Cc1ccc([Se][Se]c2ccc(C)cc2)cc1 here?
The TGI was > 100 µM.

Cc1csc2n(C)c(=O)c3ccccc3[n+]12 was tested. Which TGI did it give?
The TGI was > 100 µM.

COc1cc(C(CC(OC)OC)=C(C#N)C#N)cc(OC)c1OC was tested. Which TGI did it give?
Its TGI is 35.7 µM.

How did the TGI turn out when COC1=C(OC)C(=O)C(Cc2c(Cl)nc3n2CCS3)=C(C)C1=O was run?
Its TGI is 30.6 µM.

How did the TGI turn out when Cc1ccc(N(C(=O)CC(=O)N2N=C(c3ccccc3)C(N=Nc3ccc([N+](=O)[O-])cc3)C2=O)C(=O)c2ccc(Cl)cc2)cc1 (stereo not given) was run?
Its TGI is > 59 µM.

For CC1=N/C(=C\c2cccc3ccccc23)C(=O)O1, which TGI is on record?
The TGI was > 100 µM.

Which TGI does the source give for CCCN(CCC)c1c([N+](=O)[O-])cc(C(=O)N(C)C)cc1[N+](=O)[O-] here?
Its TGI is > 100 µM.

Which results are given for COC1CCC(n2c([C@@H]3CCCC(=O)N3c3ccc(F)c(F)c3)nc3cc(-c4c(C)noc4C)ccc32)CC1 (stereo not given in full)?
GI50: 11.4 µM; TGI: 43.7 µM

How did the TGI turn out when CN(C)/C=N/S(=O)(=O)c1nn2c(C=O)c(-c3cc4ccccc4oc3=O)nc2s1 was run?
Its TGI is > 93.5 µM.

OC1(c2ccc(Cl)cc2)c2ccccc2C2=NCc3ccccc3CN21 (stereo not given) was tested. Which TGI did it give?
The TGI was 23.4 µM.

How did the GI50 turn out when Cc1[nH]nc(C(=O)Nc2n[nH]c3ccccc23)c1[N+](=O)[O-] was run?
Its GI50 is > 92 µM.

What about the TGI of the same compound?
The TGI was > 100 µM.

Which TGI does the source give for CC1=N/C(=C\c2ccc([N+](=O)[O-])cc2)C(=O)O1 here?
Its TGI is > 100 µM.

With COc1cc(/C=C2\CCc3ccccc3C2=O)cc(OC)c1OC as the compound, how does the TGI read?
The TGI was 34.8 µM.

For C=CCC(C)(C(=O)NCCC)C(=O)c1ccccc1O (stereo not given), which TGI is on record?
Its TGI is > 100 µM.

With O=C1NC(=S)NC(=O)C1=Cc1ccc2ccccc2n1 as the compound, how does the TGI read?
Its TGI is > 100 µM.

For COc1ccc2sc3c(NCCCNCCO)nc4ccccc4c3c(=O)c2c1, which GI50 is on record?
Its GI50 is 1.65 µM.

What about the TGI of the same compound?
The TGI was 3.19 µM.

O=C(CCC(=O)OCC1OC(O)(CC2OC(CO)C(O)C(O)C2O)C(O)C1O)OCc1ccccc1 (stereo not given) was tested. Which TGI did it give?
Its TGI is > 100 µM.

How did the TGI turn out when NC(=S)N/N=C(\C(=O)Nc1ccc(Cl)c(Cl)c1)C1=NN(c2ccccc2)C(c2cccc([N+](=O)[O-])c2)CC1=O (stereo not given) was run?
Its TGI is > 100 µM.

With COC1=CCC2=C(CCN(C(=O)C3CCC3)C2Cc2ccc(OC)c(O)c2)C1 (stereo not given) as the compound, how does the TGI read?
The TGI was > 100 µM.

For CC(C)(C)C(=O)OCC(COC(=O)C(C)(C)C)[N+](=O)[O-], which TGI is on record?
Its TGI is > 100 µM.

For CC(C)(Oc1ccc(C(=O)c2ccc(Cl)cc2)cc1Cl)C(=O)N1CCN(c2ccccc2)CC1, which TGI is on record?
Its TGI is > 100 µM.

With CCOC(=O)C1=CN(C(=O)c2ccccc2)CCC1Cc1ccccc1 (stereo not given) as the compound, how does the TGI read?
The TGI was > 100 µM.

Cc1nn(C)c(=S)n(C)c1=O was tested. Which TGI did it give?
Its TGI is > 100 µM.

With CN(C)CCNC(=O)c1cccc2c1nc(-c1ccccn1)c1ccccc12 as the compound, how does the TGI read?
The TGI was 40.1 µM.

NC(CNc1ccc(O)cc1)C(=O)O (stereo not given) was tested. Which TGI did it give?
Its TGI is > 100 µM.

Which TGI does the source give for CCOC(=O)C12C(=O)CCN1CCc1ccccc1C2C (stereo not given) here?
The TGI was > 100 µM.

How did the TGI turn out when CC(C)(C)OC(=O)NCCNC(=O)CN(CC(=O)O)C1CCCCC1N(CC(=O)O)CC(=O)O (stereo not given) was run?
Its TGI is > 100 µM.

Which results are given for COc1cc2c3c(n(C)c(=O)c2cc1OC)-c1cc2c(cc1/C3=C\[C@@H](N)CCCCN)OCO2?
GI50: 0.703 µM; TGI: 58.8 µM

How did the GI50 turn out when CC(C)c1ccc(O)c(=O)cc1 was run?
Its GI50 is 7.86 µM.

What about the TGI of the same compound?
The TGI was > 100 µM.

Cc1nc2ccccc2cc1C[N+]12CN3CN(CN(C3)C1)C2 was tested. Which TGI did it give?
The TGI was 53.8 µM.

Which TGI does the source give for CCOC(=O)CCC(NC(=O)c1ccc(NCc2ccc3nc(-c4ccccc4)c(Cl)nc3c2)c2ccccc12)C(=O)OCC (stereo not given) here?
Its TGI is > 100 µM.

For CCCCNCC(O)c1cc(-c2ccc(C(F)(F)F)cc2)nc(-c2ccc(C(F)(F)F)cc2)c1 (stereo not given), which GI50 is on record?
The GI50 was 1.71 µM.

What about the TGI of the same compound?
Its TGI is 3.38 µM.

COC(=O)C(N)CCCC(N)C(=O)NC(C)C(=O)NC(CCC(=O)NCCCNc1ccc([N+](=O)[O-])c2[nH]c3ccccc3c(=O)c12)C(N)=O (stereo not given) was tested. Which TGI did it give?
The TGI was 20.4 µM.

How did the TGI turn out when Cc1[nH]c(=O)[nH]c(=O)c1C(=O)N(CCO)Cc1ccccc1 was run?
Its TGI is > 100 µM.

Which TGI does the source give for CC(=O)N1C(OCc2ccccc2)CCN1c1ccccc1 (stereo not given) here?
Its TGI is > 10 µM.

With O=C1/C(=C2\SCC(=O)N2c2ccccc2)SC(=S)N1c1ccccc1 as the compound, how does the TGI read?
The TGI was > 100 µM.

How did the TGI turn out when Cc1ccc(C2(c3ccc(C)c(O)c3C)CCN(C)CC2)c(C)c1O was run?
The TGI was > 100 µM.

With CC(=O)OC1C(O)C(C)OC(OC(=O)C2CCC3C(C2)OC2(CC(OC(=O)/C=C/c4ccccc4)C(C)CO2)C32CO2)C1OC1OC(C)C(O)C(O)C1O (stereo not given) as the compound, how does the TGI read?
The TGI was 0.281 µM.

With O=C1OC(C(O)C(O)C(O)CO)C(O)C1O (stereo not given) as the compound, how does the TGI read?
The TGI was > 100 µM.

CC(C)(C)c1nnc2n(c1=O)N=CC(c1ccc(Br)cc1)S2 (stereo not given) was tested. Which GI50 did it give?
The GI50 was 47.5 µM.

What about the TGI of the same compound?
The TGI was > 100 µM.

Which GI50 does the source give for Oc1ccc(-c2nc3ccc4[nH]ncc4c3c3c2CCCC3)c2cccnc12 here?
Its GI50 is 0.419 µM.

What about the TGI of the same compound?
The TGI was 11.8 µM.

For O=c1c(S(=O)(=O)Oc2ccccc2)coc2cc(F)ccc12, which TGI is on record?
The TGI was > 100 µM.

Which TGI does the source give for CCCCCCCCCC(=O)N[C@H]1CCc2cc(OC)c(OC)c(OC)c2-c2ccc(SC)c(=O)cc21 here?
Its TGI is > 100 µM.

With COc1cc(-c2coc3c(OC)c(OC4OC(COC5OC(C)C(O)C(O)C5O)C(O)C(O)C4O)c(OC)c(O)c3c2=O)cc(C)c1O (stereo not given) as the compound, how does the TGI read?
Its TGI is 30.4 µM.
